# Data published in publication PMC4336329 (PLoS ONE, 2015).
# In all, about 310,000 compounds went through this assay and about 14,000 (4.5%) showed an effect of 50% or more. The effect is printed as a negative number. This is one part of the list.
# Target: human ether-à-go-go-related gene (hERG) potassium channel (human, UniProt Q12809)
# Experiment: primary screen, population patch clamp on CHO cells stably expressing hERG
# 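Further: peak tail current of the secondary pulse compared with the same well before compound.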
# human ether-à-go-go-related gene (hERG) potassium channel, sequence (Q12809 whole entry, looked up): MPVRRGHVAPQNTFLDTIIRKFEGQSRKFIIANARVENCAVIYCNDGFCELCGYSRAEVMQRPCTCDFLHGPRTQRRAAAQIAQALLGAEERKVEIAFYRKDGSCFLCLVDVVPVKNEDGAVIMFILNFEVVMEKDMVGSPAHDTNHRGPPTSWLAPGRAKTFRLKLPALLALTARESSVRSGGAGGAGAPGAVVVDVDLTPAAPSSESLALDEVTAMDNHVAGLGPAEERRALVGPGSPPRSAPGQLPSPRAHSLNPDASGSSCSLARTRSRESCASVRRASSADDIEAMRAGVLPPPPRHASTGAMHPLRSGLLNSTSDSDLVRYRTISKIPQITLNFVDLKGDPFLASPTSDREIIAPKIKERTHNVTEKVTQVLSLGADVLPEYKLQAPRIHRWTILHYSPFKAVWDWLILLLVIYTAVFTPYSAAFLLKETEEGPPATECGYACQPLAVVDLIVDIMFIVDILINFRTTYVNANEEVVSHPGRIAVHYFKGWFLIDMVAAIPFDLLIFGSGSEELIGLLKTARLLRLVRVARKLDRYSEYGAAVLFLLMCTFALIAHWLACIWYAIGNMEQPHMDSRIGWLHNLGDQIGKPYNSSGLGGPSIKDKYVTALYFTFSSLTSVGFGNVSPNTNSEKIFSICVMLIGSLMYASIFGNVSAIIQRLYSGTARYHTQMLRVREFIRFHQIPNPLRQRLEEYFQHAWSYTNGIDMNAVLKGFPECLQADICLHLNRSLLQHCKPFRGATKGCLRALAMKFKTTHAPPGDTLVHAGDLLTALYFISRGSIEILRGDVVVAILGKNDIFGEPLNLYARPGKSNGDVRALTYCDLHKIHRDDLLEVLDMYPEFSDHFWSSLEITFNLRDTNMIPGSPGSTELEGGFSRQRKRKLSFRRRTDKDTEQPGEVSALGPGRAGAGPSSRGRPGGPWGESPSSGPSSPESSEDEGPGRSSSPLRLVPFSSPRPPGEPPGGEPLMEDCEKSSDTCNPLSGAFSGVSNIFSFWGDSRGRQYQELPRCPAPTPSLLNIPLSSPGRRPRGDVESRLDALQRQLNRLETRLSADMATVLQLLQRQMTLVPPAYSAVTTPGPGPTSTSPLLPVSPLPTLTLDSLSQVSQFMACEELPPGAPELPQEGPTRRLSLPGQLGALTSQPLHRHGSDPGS
row,SMILES,"hERG current change (%, negative = inhibition) at 10uM [%]"
1,CN(C)CC1CSCCC1(O)c1ccc(Cl)cc1.Cl (stereo not drawn),1.69
2,O=C(NCCc1csc(-c2cccnc2)n1)c1ccc(Cl)cc1,-25.5
3,Cn1cc(/C=N/NC(=O)c2cc3cc(Br)ccc3o2)c2ccccc21,9.06
4,Cc1cc(C)n(-c2nc(-n3nc(C)cc3C)c3c4c(sc3n2)COC(C)(C)C4)n1,-2.71
5,COc1ccccc1NC(=O)CSc1nc(O)cc(=O)n1-c1ccccc1OC,9.9
6,Cn1c(/C(C#N)=C(\O)COc2ccc3ccccc3c2)nc2ccccc21,14.5
7,CCCc1n[nH]c2c1C(=O)CC(C)(C)C2,8.95
8,CC1CCCCN1CCNC(=O)CC1Oc2ccccc2NC1=O (stereo not drawn),-3.18
9,Cc1ccc(NC(=O)CNCCCN2CCOCC2)cc1S(=O)(=O)N1CCCCC1.O=C(O)C(=O)O,-12.5
10,CCN(CC)C(=O)COc1c(-c2ccco2)oc2ccccc2c1=O,-7.02
11,CCCCN(C)CCOc1ccccc1OCC.O=C(O)C(=O)O,-25.3
12,Cc1ccc(-c2cc(C(F)(F)F)n3nc(C(=O)Nc4c(C)n(C)n(-c5ccccc5)c4=O)cc3n2)cc1,-14.3
13,CCOc1ccc(N(C)S(=O)(=O)c2ccc(C)c(C(=O)Nc3nnc(C4CC4)s3)c2)cc1,0.279
14,Cc1ccc(-c2nnc(CN3CCCCC3C)o2)cc1 (stereo not drawn),-3.98
15,C/C(=N\NC(=O)c1cccs1)c1ccc2c(c1)OCO2,12.1
16,CCOC(=O)CC1C(=O)NCCN1C(=S)NC(=O)c1ccccc1OC (stereo not drawn),20.9
17,CN(Cc1ccccc1)C(=O)NC1CCCCC1,-13.6
18,O=C(CN1C(=O)NC2(CCCc3ccccc32)C1=O)c1ccc(Br)cc1 (stereo not drawn),-20.4
19,COC(=O)CSc1nc(NCC(C)C)nc(N2CCOCC2)n1,-4.48
20,COc1ccc2nc(NC(=O)CSc3nccc(C)n3)sc2c1,-48.8
21,O=C(CN1CCN(Cc2ccccc2Cl)C1=O)NC1CCCCCC1,-3.06
22,CC(=O)c1ccc(N(C(=O)Cn2nnc3ccccc32)C(C(=O)NCc2ccccc2)c2ccccn2)cc1 (stereo not drawn),-73.2
23,COCCNC(=O)C1(S(=O)(=O)c2ccccc2)CC=CC1,3.03

row,SMILES,"hERG current change (%, negative = inhibition) at 10uM [%]"
1,CCOC(=O)c1ccc(NC(=O)CC2OCCN(CC)C2=O)cc1 (stereo not drawn),-11.8
2,Cc1ccc(SCC(=O)Nc2ccc(S(=O)(=O)Nc3ncccn3)cc2)cc1,31.4
3,CCOC(=O)CCCNC(=O)COc1ccccc1C#N,22
4,Cc1cccc(N(C(=O)c2snc(C(N)=O)c2N)C(C(=O)NCC2CCCO2)c2ccc(N(C)C)cc2)c1 (stereo not drawn),22.9
5,CC(C)(C)c1ccc(NC(=O)COC(=O)CCc2nc3ccccc3c(=O)[nH]2)cc1,-42.8
6,O=C(c1cccnc1Cl)N1CCOCC1,18.6
7,C=C(C)COc1ccc(-c2nc(N)ncc2Oc2ccccc2OCC)c(O)c1,17.3
8,Cc1ccc(-c2cc(C(F)(F)F)n3ncc(C(=O)N4CCCc5ccccc54)c3n2)cc1,-0.405
9,CN(Cc1cccs1)S(=O)(=O)c1ccc(Cl)cc1F,-12.5
10,Cc1c(C)c2ccc(OCC(=O)Nc3cccnc3)c(C)c2oc1=O,3.99
11,CNC(=O)COC(=O)c1cc2c(C)nn(-c3ccc(F)cc3)c2s1,-16.1
12,Oc1ccc(-c2nnc(SCC3CCCCC3)o2)cc1,-11.2
13,O=C1C2C3CCCC3=C3CCCC3C2C(=O)N1c1cccc(Cl)c1 (stereo not drawn),8.79
14,CC(=O)Nc1ccccc1C(=O)C(=O)Nc1cccc(C(=O)NCC2CCCO2)c1 (stereo not drawn),8.98
15,CCOc1ccc(OCc2ccc(C(=O)Nc3cccnc3)cc2)cc1,17.7
16,Cc1ccccc1NC(=O)CCN1CCCC1.Cl,5.09
17,O=C(Nc1cccc2nsnc12)c1cccnc1,7.77
18,CC(C)n1nccc1N(Cc1ccc(Cl)cc1)S(=O)(=O)c1ccccc1,-12
19,Cl.OC(COCc1ccc(Cl)cc1)CN1CCCCC1 (stereo not drawn),-35.8
20,COc1ccccc1-c1nc2c(c(SCC(=O)N3CCCCC3)n1)Cc1c(CO)cnc(C)c1O2,-6.81
21,Nc1nc(SCC(=O)c2cc(F)ccc2F)n[nH]1,12.5
22,CCOC(=O)Cc1cc(OC)c(OC)cc1Cc1cc(OC)c(OC)cc1CC(=O)OCC,9.74
